Assay results from the RNAGym collection of RNA variant scans (doi:10.1093/nar/gkz1192).
Read counts are not given, so values of variants with three or more changes are uncertain.

B1: CPEB3 Ribozyme (parent)
chain: UAACAGGGGGCCACAGCAGAAGCGUUCACGUCGCAGCCCCUGUCAGAUUCUGGUGAAUCUGCGAAUUCUGCUGUAUAUCUC

Variants of: B1
Assay: self-cleavage, relative activity (ratio to wild type); higher = more cleavage; in vitro, sequencing
Method in brief: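 Relative activity compares each variant's cleaved/total read fraction with that of the unmutated ribozyme. To get these fractions, barcoded CPEB3 ribozyme libraries from rounds of error-prone PCR were transcribed with T7 RNA polymerase for 5 hours at 37°C and then given 15 min of DNase I treatment before EDTA was added. The RNAs were reverse transcribed with template switching and sequenced on Illumina, and DNA sequencing linked barcodes to variants. A minimum of 5 reads applied, and three batches were averaged.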
A15G A20C A45U A57G A65G showed a self-cleavage of 0.1. For A15G G22A A35C C62U, the self-cleavage was 0.05. A15C A35G U41C U49C gave a self-cleavage of 0.57. For A15G G22C G63A U66C U69A, the self-cleavage was 0.24. A15G U31A A35U G63C gave a self-cleavage of 0.24. A15G U25C U41C showed a self-cleavage of 0.42. A15G A18C A64U showed a self-cleavage of 0.09. Variant A15G U72A U80C has a self-cleavage of 0.61. With A15G A21G U41A U72C the self-cleavage was 0.32. For A15G U26C U78C C81U, the self-cleavage was 0.38. A15C U31C U43A U69C U78A showed a self-cleavage of 0.23. A15G A45G U49C U67C showed a self-cleavage of 0.15. In the case of A15G A20G U26A G42A U69A U72C A77U, the self-cleavage is reported as 0.07. Variant A15G U48C U60C has a self-cleavage of 0.1. For A15G C29U U58C A64G, the self-cleavage was 0.09. Work on A15G A21G G22C U80C yielded a self-cleavage of 0.08. In the case of A15U A18G A20G C40A, the self-cleavage is reported as 0.11. With A15G U51A U72C the self-cleavage was 1.19. A15G A21G C27A G42A U51A showed a self-cleavage of 0.02. With A15G C32U A45G U54C U67C the self-cleavage was 0.07. In the case of A15G C39U U41G U43C U48C C62A, the self-cleavage is reported as 0.3. A15G C40U G70C gave a self-cleavage of 0.11. Variant A15G C68G U72A has a self-cleavage of 0.17. In the case of A15G A21G U48C U51A A56G, the self-cleavage is reported as 0.07. In the case of A15G U51A U54C A64G, the self-cleavage is reported as 0.93. With A15G U41A U78A the self-cleavage was 0.22. In the case of A15G U25C U41C A45G, the self-cleavage is reported as 0.04. In the case of A15G G30A U43A U72C U80C, the self-cleavage is reported as 0.26. In the case of A15G G19U U31C, the self-cleavage is reported as 0.07. A15G G16A U25A U66C U72A gave a self-cleavage of 0.05. In the case of C14U U41C C44U A77U, the self-cleavage is reported as 0.38. In the case of A15G C38A U69C, the self-cleavage is reported as 0.16. With A15G U60A U72C the self-cleavage was 0.61. In the case of A15G U31A A56G U66A, the self-cleavage is reported as 0.15. With A15G G19U U67C U69A the self-cleavage was 0.07. For A15C A65G U67C A77U, the self-cleavage was 0.06. Work on A15G U31C C32U U54A U67C yielded a self-cleavage of 0.09. Work on A15G A18G C27U G36C C40U yielded a self-cleavage of 0.06. For A15G U25C U41A A57G G63A U72A, the self-cleavage was 0.07. Variant A15G A21G A75G has a self-cleavage of 0.37. Work on A15G A28U A45G U60A yielded a self-cleavage of 0.24. A15G A64G U72C gave a self-cleavage of 1.2. A15G U31C U49C gave a self-cleavage of 0.32. A15G U25C G55A A56G showed a self-cleavage of 0.11. With A15C A20G U31A A56G U80A the self-cleavage was 0.15. With A15G A20G U58C G63C A64G the self-cleavage was 0.19. Work on A15C U58G C71A U76A A77G yielded a self-cleavage of 0.06. Variant A15G C32U A56G A65G has a self-cleavage of 0.04. A15G U43A U76C gave a self-cleavage of 1.11. For A15G A28U U72C, the self-cleavage was 1.08. With A15G U58C U69A the self-cleavage was 0.34. With A15G C40A A64G U74C the self-cleavage was 0.45. In the case of A15G G42U U43C U51G, the self-cleavage is reported as 0.41. A15G U26A A47G showed a self-cleavage of 0.85. In the case of A15C A45U A64G U67G, the self-cleavage is reported as 0.12. A15G A28U U48C A64G U69C showed a self-cleavage of 0.13. A15C U26A C37U U51C C59G A64G U72C showed a self-cleavage of 0.09. In the case of A15G A20G A21G A65G U66C U69C U76A, the self-cleavage is reported as 0.17. Variant A15G C23U U69G U72C has a self-cleavage of 0.07. Work on A15G A35C U54A U58C C68A A77U yielded a self-cleavage of 0.06. A15G A18U U58C showed a self-cleavage of 0.11. In the case of A15C U58C U78A, the self-cleavage is reported as 0.63. A15G A28C U41C A47G showed a self-cleavage of 0.41. Variant C14U U54C U72C U78C has a self-cleavage of 1.21. With A15G A21G U74C the self-cleavage was 0.51. A15G U31C U41A U60C A65G showed a self-cleavage of 0.04. Variant A15G C17A U25C A28C has a self-cleavage of 0.4. With A15G A18U G42C U66C U80C the self-cleavage was 0.05. A15G U60C U80C gave a self-cleavage of 0.25. With A15G A21G A28G U31A U60C U69A U80C the self-cleavage was 0.05. Variant A15G U25C U54C G55A U66C A77G has a self-cleavage of 0.11. Variant A15G C23U A56G has a self-cleavage of 0.1. In the case of A15G C29U G30U U58C U76C, the self-cleavage is reported as 0.15. Work on A15G A56U A75G yielded a self-cleavage of 0.39. In the case of A15G A21G U48G U76A, the self-cleavage is reported as 0.35. For A15G A18C U26C G33U A45G U49C U74A, the self-cleavage was 0.24. In the case of A15G A35U U41A C59U U66C, the self-cleavage is reported as 0.06. Work on A15G U49C U67C yielded a self-cleavage of 0.13. With A15G A28U G33U U49A the self-cleavage was 0.23. A15C U25C G63C A64U U72A showed a self-cleavage of 0.11. Work on A15G C37U A45G U58C A65G yielded a self-cleavage of 0.04. Variant A15G C23A U41C A45G A57G A65U U80A has a self-cleavage of 0.15. For A15G U26C U54A U67C, the self-cleavage was 0.14. For A15C A28U U43C U60A G63U, the self-cleavage was 0.11. A15G U60A U74C A75G showed a self-cleavage of 0.41. A15G U66C G70A gave a self-cleavage of 0.29. In the case of A15G U31C U41A A57G U66C, the self-cleavage is reported as 0.06. For A15C A35G U43C U69C, the self-cleavage was 0.16. With A15G U25C A35U A56U the self-cleavage was 0.05. Variant A15G A45G C62U U66C U76C has a self-cleavage of 0.14. For A15G C40U U58A, the self-cleavage was 0.16. Work on A15G U26A U54A U60A yielded a self-cleavage of 0.09. For A15G A56G A64U U72A, the self-cleavage was 0.23. A15G A28G U41C U54A showed a self-cleavage of 0.55. In the case of A15G U25C U31A, the self-cleavage is reported as 0.11. In the case of A15G U31C U41C, the self-cleavage is reported as 0.24. A15G U26A A28G C32G U48A U54A U72A gave a self-cleavage of 0.11. In the case of A15G A35U C38G A45U A47G, the self-cleavage is reported as 0.07. With A15G A21G C40A the self-cleavage was 0.35. A15G U31A C62U gave a self-cleavage of 0.06. For A15G A47G U60C U78C, the self-cleavage was 0.14. A15C C34G U54C A57G U80A gave a self-cleavage of 0.08. A15C C23G U76A showed a self-cleavage of 0.21. With A15G C38U U43C the self-cleavage was 0.15. Work on A15G G24A G61A U78C yielded a self-cleavage of 0.12. A15G U41C A56G U72C U76C C79U gave a self-cleavage of 1.3. In the case of A15G U54C A56U U66C U69C U78A, the self-cleavage is reported as 0.18. A15G U43A U54A U78A showed a self-cleavage of 1. Variant A15G G33U G42U A75G U76G has a self-cleavage of 0.07. In the case of A15G C40A A56U, the self-cleavage is reported as 0.11. With A15G U31C C50A the self-cleavage was 0.11. With A15C G33A U72A the self-cleavage was 0.23. Variant A15G U25A U51C A65G has a self-cleavage of 0.1. With A15G A21U C27A G42A U80A the self-cleavage was 0.18. A15G C38A A56G U66C U76C gave a self-cleavage of 0.08. A15G A28G U67C U72C U80C gave a self-cleavage of 0.29. A15G U41A G55A U72C gave a self-cleavage of 0.12. A15G A18U A45G U49C U74A gave a self-cleavage of 0.05. For A15G U25C G42U, the self-cleavage was 0.09. In the case of A15G A18G U31C U41C A57U, the self-cleavage is reported as 0.25. For A15G A28U U31A A57U A65G U67A, the self-cleavage was 0.09. Variant A15G A21G C40U U41C A57G U74C U78C has a self-cleavage of 0.26. Variant A15G A45U A64G U72A has a self-cleavage of 0.2. Work on A15G A35G U51C U60G U67A yielded a self-cleavage of 0.13. In the case of A15G U26C A45G U48C, the self-cleavage is reported as 0.21. In the case of A15G U41C U43C, the self-cleavage is reported as 0.37. In the case of A15G A18G A20G U72C, the self-cleavage is reported as 0.36. With A15C A18G U72A U76C the self-cleavage was 0.15. A15G U41C A64G U72C showed a self-cleavage of 0.92. For A15G A18C U31A U60C A65C, the self-cleavage was 0.16. With A15G U41A G53C U69C U78G the self-cleavage was 0. In the case of A15G U54C U67C, the self-cleavage is reported as 0.14. In the case of A15G U26G C32U A57G A65G, the self-cleavage is reported as 0.11. Work on A15G A35G U54C A57U yielded a self-cleavage of 0.29. A15G A45G U67C U80C showed a self-cleavage of 0.32. In the case of A15C A18G G46A A56G U66A, the self-cleavage is reported as 0.2. A15C A18G U43G U49A gave a self-cleavage of 0.09. A15G A18G A21G A45G U48C U54G showed a self-cleavage of 0.39. Work on A15C C38G U80A yielded a self-cleavage of 0.1. Work on A15G U67C U80C yielded a self-cleavage of 0.24. Variant A15G A18G A21U U25A A45U A56G has a self-cleavage of 0.08. A15G U41C C44A A64G U72C U78C showed a self-cleavage of 0.07. With A15G C17U U31C U41C U43C G46U U51A the self-cleavage was 0.03. A15G U31C A64U U74C showed a self-cleavage of 0.3. In the case of A15G U25C A65C U66C U78C, the self-cleavage is reported as 0.05. For A15G C68A U72C A75U, the self-cleavage was 0.39. In the case of A15C U49C U67C, the self-cleavage is reported as 0.09. Variant A15G A20G G22C U51A U54C has a self-cleavage of 0.2. A15G A21G A47C U54A C68U U76C showed a self-cleavage of 0.26. A15C U25G A28G U67C U78A C79G gave a self-cleavage of 0.01. A15G A21G U26A A65G U72C U80G showed a self-cleavage of 0.05. Work on A15G U25A U31G C32U U67C A77G yielded a self-cleavage of 0.06. Work on A15G A56U U78C yielded a self-cleavage of 0.36. For A15G U31A U41A C50A, the self-cleavage was 0.14. With A15G U49C U60C U80C the self-cleavage was 0.23. A15G U49C A56U showed a self-cleavage of 0.21. Variant A15G A18G U60C C68A U80C has a self-cleavage of 0.08. Variant A15G U26C U41C has a self-cleavage of 0.33. A15G U26C U41A gave a self-cleavage of 0.35. For A15G U51C A57G U66C U72G, the self-cleavage was 0.18. A15G C32A U41C U72C gave a self-cleavage of 0.32. In the case of A15G A35U A56U, the self-cleavage is reported as 0.14. For A15G U26C U66A, the self-cleavage was 0.32. With A15G U31C A64G A65G the self-cleavage was 0.31. A15G U31A U60C U69A U78C U80C showed a self-cleavage of 0.23. For A15G G55A U67A U69G U78C, the self-cleavage was 0.13. A15G U41C U69G U74C showed a self-cleavage of 0.21.
